# From PubChem BioAssay AID652104 (National Center for Advancing Translational Sciences (NCATS), 2013)
# The whole screen tested about 410,000 compounds, of which about 7,200 (1.8%) were called active. The shares of active, inactive and inconclusive entries below differ from those in the screen. The call rests on the fitted dose curve; in most records, active means well fitted activation curve with a large enough effect; inconclusive means small, poorly fitted or top-dose-only effect, or another doubt; inactive means no such curve, though single readings can be large or run the other way. Potencies of inconclusive entries are left out as doubtful fits.
# Test: qHTS of TDP-43 Inhibitors; further: nearly all actives have a fitted effect of over 50% in size
# Settings: TDP-43 expressing yeast growth rescue, BacTiter-Glo, 24 h; series mostly up to 46.1 µM
# Procedure, shortened: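 Readout is BacTiter-Glo luminescence of cell growth, so inhibitors register as activators. TDP-43-expressing yeast at OD600=0.02 in galactose medium, after raffinose pregrowth to mid-log, were incubated with compound for 24 hr at 30 deg C.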
# Potency means the concentration at half of the fitted maximal effect; tags describe the fitted curve by direction and shape.
row,SMILES,Potency
1,Clc1cc2cccnc2c2ncccc12,inactive
2,Cc1ccccc1N1C(=O)c2sc3nc4c(c(=O)n3c2C1=O)CCC4,"inconclusive [activator, partial curve]"
3,Cc1ccc(N(C(=O)c2snc(C(N)=O)c2N)C(C(=O)NC2CCCC2)c2ccc(C)o2)cc1 (stereo not given),inactive
4,FC(F)(F)c1ccccc1Cc1c(-c2ccco2)nc2ccc(Cl)cn12,"inconclusive [activator, single point]"
5,COc1ccccc1NC(=O)Nc1nc(CC(=O)NCc2ccccn2)cs1,inactive
6,CC(C)Cn1c(N)c(C(=O)COC(=O)c2cc(C3CC3)nc3ccccc23)c(=O)n(C)c1=O,"inconclusive [activator, partial curve]"
7,Cc1ccc(OCC(=O)c2cc(C)n(Cc3cccs3)c2C)c([N+](=O)[O-])n1,"inconclusive [activator, partial curve]"
8,Oc1ccc(NCc2ccccc2OCc2ccc(Cl)cc2)cc1,"inconclusive [activator, single point]"
9,O=[N+]([O-])c1ccccc1-c1cc(-c2ccccc2O)n[nH]1,"inconclusive [activator, single point]"
10,Cc1cccc(C(=O)NNc2ncnc3c2cnn3-c2ccc(C)cc2C)c1,"inconclusive [activator, partial curve]"
11,COc1cccc(C(NC(C)=O)c2nc(-c3cccc(C(F)(F)F)c3)cs2)c1 (stereo not given),"inconclusive [activator, partial curve]"
12,COC(=O)c1ccc(Oc2cc(C)nc(SC)n2)cc1,"inconclusive [activator, partial curve]"
13,c1ccc(CCn2nnnc2C(c2cccnc2)N2CCN(c3ccccc3)CC2)cc1 (stereo not given),"inconclusive [activator, single point]"
14,C=CCN(CC=C)C(=S)Nc1cc(Cl)ccc1OC,"inconclusive [activator, partial curve]"
15,COC(=O)N1C(=O)[C@](c2ccsc2)(C(C)C)N1C(=O)OC,active: 20 µM
16,CSc1ccc(-c2nc3cccc(C)n3c2Nc2ccc(Cl)cc2)cc1,"inconclusive [activator, single point]"
17,Cc1nnc(NC(=O)c2ccccc2Oc2ccccc2)s1,"inconclusive [activator, partial curve]"
18,NNC(=O)COc1ccc2oc3c(c2c1)CCCC3,inactive
19,CCOC(=O)c1ccccc1NC(=O)COC(=O)CSc1ccccc1,inactive
20,CCOc1ccc(NC(=O)c2cc(S(=O)(=O)NC3CCCCCC3)ccc2F)cc1,active: 12.6 µM
